Results: the RNAGym collection of RNA variant scans (doi:10.7554/elife.90254)
Read counts are not given, so values of variants with three or more changes are uncertain.

B1: OR4K15 (parent)
chain: GUUAACGGUCAUAGGCCAUGGAAACUAGGAGCACCAUUUCGCUGCCAGUGAAGAAAUGAACAAAGAAAAUCUGGGCCAGGCAGGCAUCAAAAGAAAUAGUCUUGCGCUCAACCAGAAAGUCUGUAAUCAUUUUAAGGGUA

Variants of: B1
Test: self-cleavage, relative activity (ratio to wild type); higher = more cleavage; in vitro, sequencing; the parent is a self-cleaving ribozyme

Variant | self-cleavage
A4U A33U A126G | 1.34
A4G A89U A95G A134G A135G | 1.89
A5G A89U U127A | 1.34
A4G U38C U87C A94U U100A U103G | 0.03
A5G A22G G53A G58A U103C | 0.71
A4C G44A A68G A135U | 1.09
A5C U43A A96G U108A | 0.02
A5G A11U A36G | 1.52
A5G U12C A13G A33G A47G U131C | 0.88
A4G A18G U100C | 1.41
A5G A18G A33U | 0.61
A5G U19C A59G U100C | 0.99
U3C U49C U108C | 0.02
A4G U38C A62G U130C | 0.34
A4G A78G A126G | 0.52
A5G A24G A96G | 0.55
A5G A27G U57C A62U A116G G123A | 0.46
A5G U49A A51G A126G | 2.03
A4G A55G U102A | 0.9
A4G U19C A52G U70C A78G | 0.22
A5G A13G U26C U37A A94G | 0.81
A5G A86G A95G | 1.42
A5G A54G U131C | 1.6
A5G A24G A30U U72C | 0.38

Variant | self-cleavage
A5G A23G A24G U72C | 0.33
A5G A23G A51G | 0.65
A5G A64U A94G U127C | 0.54
A5C A47U A55G A78G | 0.18
A5G A59G U127C | 0.67
A5G A11G A33G A86G A95G | 1.51
A4G A18U U49C A52G | 1.16
A5G A18G A54U U72A U87C | 0.2
A4G A13U A94G | 0.59
A5G A78G A111G | 0.16
A5G A30G U108C U127C U132A | 0.02
A5G A54G A55U | 1.38
A5G A13U U37C A63G A68G U131A | 0.23
A5G G14U A18U A67G A92G U100A C128U | 0.35
U3G A18G U19C U43G A60G A91G A117G | 1.26
A5G G7U A24G A68G A78G | 0.36
U3G A68G A78G | 0.27
A5G A23G A78U A95G | 1.37
A4U U102C A117U | 1.05
A5G A24C U57C A129G | 1.73
A5G U37C U108A | 0.17
A5C C17U U49C A78G U127C U131C | 0.22
A5C U102C U131C U133C | 1.46
A5G A94U A114G U122A | 0.44

Variant | self-cleavage
A4G G8A A27G U43A A92G A98U | 1.59
A5G U72C A116G | 0.05
A5G U12C U43A U57A | 0.73
A5G A47C A95G A110G | 0.34
A5G A60G U87C | 0.59
A5C A96G A116G | 1.29
A5G U9C G41A A51G A56G G106A A114G | 0.07
A4G A66G U131C | 0.95
A5G A62G A68G U132A | 0.18
A5G U9C U43C A66U A94G | 0.69
A4G U49C U139G | 1.19
A4G A5G U26C | 0.62
A5G A55G A63G A78G A92C | 0.1
A5G U19A C45U | 0.74
A4G A30G G65A A96G | 1.12
A4G A24G A82G | 0.96
A5G A47G A114U A135G | 0.04
A5G A47G A51U A55G | 0.54
A4G A18G U19C A33G A92G A95G U130C | 0.81
A5G A30G A67G U87C U97C A140U | 0.95
A5G A59G A140U | 1.03
A5G U9A A64G A110U | 0.79
A5G A66G G75A A82U A95G U108C | 0.1
A4G U103A A116G | 0.4

Variant | self-cleavage
A4G A67G A92G U120C | 1.16
A4G A24G A68G | 0.97
A5G U19A U57C | 0.97
A5G A23G A33G A67G U97C U108C | 0.04
A5G A60G A82U U102C C107U | 0.02
A5G A11G A59G | 0.93
A4G A23G A55U A62G A118C | 0.54
A5G A110U A118G U120C | 0.54
U3C U39G A92G | 1.8
A5G C46U A82U A89C U108C | 0.02
A5G A30G A95G | 0.91
A5G A60G A118G | 0.82
A4G A62G G75A | 0.26
A5G U39C G50U A52G U131C | 0.86
A4U A60G A86G | 1.32
A4G A23G U38A A51U U127A | 2.44
A4G A23U U97A U102C U122A | 0.58
A5G U49C A56G | 0.99
A5G A47U A56G U87C | 0.73
A5G A22U A30G U122C | 0.79
A5G A30G U70C A111G A116G U120C | 0.03
A5G U12A A51G A82G A94U U103C | 1.78
A5G A13G A54G U100C | 1.02
A5G U9A A64G | 0.56

Variant | self-cleavage
A5G A69G A117G | 1.83
A4G U43A A92G | 2.01
A5G A56G U87A U132C | 0.51
A5G A11G G20A U43C A64G U87C A89C | 1.48
A5C A96G U108A | 0.02
A5G A24G A134G | 0.81
A5G A78G U97C | 0.7
A5G A22G C76A U130C | 0.28
A5G U43C A51G A92G | 1.02
A5G A64U A117G | 1.51
A4G A52G A67G U108A | 0.15
A4G A18U A51U A67G | 0.92
A5G U39A A52G G119A | 1.53
A4G A52G A126G | 0.57
A4G U43C G83A | 1.01
A5G U38A G104A | 0.13
A5G A23C U39C U43C U127C | 1.11
A4G U43C A78U | 0.16
A5G A55U U72A | 0.48
A5G A18G A111G A116U | 0
A5G A90G A110G | 0.34
A4G A91G A126U | 0.31
A5G U9C A33G | 1.52
A4G A116G U132G | 0.3

Variant | self-cleavage
A4G G7U A67G U103C U124C A135U | 0.43
A5G A11G A68G | 0.68
A4G U26C U108C | 0.05
A5G A23G A64G A94G U130C | 0.29
A5C U49C A98U | 1.45
A5G A56G A78C U102C A111G | 0.02
A5G A13G A60U | 0.7
A5G U38C A116G | 0.95
A5G A67G A126G U131C | 0.51
A5G U43A U57C U70C U87C A117G | 0.73
A5G A24G U37C A78G A82G | 0.71
A5G A33C A54G | 1.44
A5G A27G U57C A118G | 0.69
A5G A13G A117G | 0.7
A5G A33G U37C U38C U39C A62G A129G | 1.2
A5G A47G U49C A69G | 0.55
A5G C40A A92G | 1.78
A4G A23G U43C A96U | 1.33
A4G A33G A36U | 1.12
A5G A23U A54U A60G | 0.88
A4G A62G A64G C76G A110G | 0.1
A5G A36C A55G | 0.42
A5G U38A A52G A68G U87A | 0.62
A4G A66G A110G | 0.61

Variant | self-cleavage
A5G A52U A64G A82G | 0.71
A5G U9C A30U A55G C105G A110U | 0.04
A4G A18G A67G A134U | 0.59
A5G U72A U100C | 0.77
A4G A47U U131C | 0.3
A5G U19C A118G U124C | 0.52
A5G A118G A129G | 0.43
A4G A5G U37C A78G A135G | 1.04
A5G A64G A98G U108C U139C | 0.11
A4G U72C A96G U131C | 0.15
A5G A22U U39A | 1.42
A5G A55G A64U | 0.5
A4G U19C U39C A114U | 0.16
A5G A59G U72A U132C | 0.16
A5G A36G A51U A118G | 0.44
A5G C32U C46U | 0.84
A5G U37A U38A U124C | 1.02
A4G G29A U130A | 1.06
A4G A51G C113U | 0.09
A5G U72C A111U | 0.05
A5G A52G A91U C128A | 1.54
A5G A24C U39A | 1.25
A4G A22G U127C | 0.62
